This note sets out measurements from the supplement of paper PMC4604168 (melanoma cell lines).

Some of the results follow. Repeats are few or missing, and single values can be far off.
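Also: cell number obtained by counting DAPI-stained nuclei in high-throughput microscope images with image analysis software, screen run in 1,536-well plates.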

The subject of the test is A375. The experiment in a line: cell count relative to DMSO control; melanoma cells; higher = more viable cells. Conditions: library dose: low library concentration; 72 h.
In turn, `CCN(CC)CCNC(=O)c1c(C)[nH]c(/C=C2\C(=O)Nc3ccc(F)cc32)c1C` [sunitinib] + NC1(c2ccc(-c3nc4ccn5c(=O)[nH]nc5c4cc3-c3ccccc3)cc2)CCC1 [MK2206] (first compound 0.4 µM, partner dose 0.4 µM) had a cell count of 85.2%.
As for `Cn1cnc2c(F)c(Nc3ccc(Br)cc3Cl)c(C(=O)NOCCO)cc21` [selumetinib] + CNC(=O)c1cc(Oc2ccc(NC(=O)Nc3ccc(Cl)c(C(F)(F)F)c3)cc2)ccn1 [sorafenib] (first compound 0.015 µM, partner dose 0.4 µM), the figure is 80.4%.
As for `Cn1cnc2c(F)c(Nc3ccc(Br)cc3Cl)c(C(=O)NOCCO)cc21` [selumetinib] + Cc1cc(Nc2cc(N3CCN(C)CC3)nc(/C=C/c3ccccc3)n2)n[nH]1 [ENMD2076] (first compound 0.015 µM, partner dose 0.04 µM), the figure is 68.9%; as for `COc1cc([C@@H]2c3cc4c(cc3[C@@H](O[C@@H]3O[C@@H]5CO[C@@H](C)O[C@H]5[C@H](O)[C@H]3O)[C@H]3COC(=O)[C@H]23)OCO4)cc(OC)c1O` [etoposide] + Nc1nc(F)nc2c1ncn2[C@@H]1O[C@H](CO)[C@@H](O)[C@@H]1O [fludarabine] (first compound 0.02 µM, partner dose 0.2 µM), 24.9%.
Take `COc1cc([C@@H]2c3cc4c(cc3[C@@H](O[C@@H]3O[C@@H]5CO[C@@H](C)O[C@H]5[C@H](O)[C@H]3O)[C@H]3COC(=O)[C@H]23)OCO4)cc(OC)c1O` [etoposide] + Cn1sc(=O)n(Cc2ccccc2)c1=O [TDZD-8] (first compound 0.02 µM, partner dose 0.4 µM): the cell count was 93.3%.
As for `Cn1cnc2c(F)c(Nc3ccc(Br)cc3Cl)c(C(=O)NOCCO)cc21` [selumetinib] + CO[C@H]1C[C@@H]2CC[C@@H](C)[C@@](O)(O2)C(=O)C(=O)N2CCCC[C@H]2C(=O)O[C@H]([C@H](C)C[C@@H]2CC[C@@H](OCCO)[C@H](OC)C2)CC(=O)[C@H](C)/C=C(\C)[C@@H](O)[C@@H](OC)C(=O)[C@H](C)C[C@H](C)/C=C/C=C/C=C/1C [everolimus] (first compound 0.015 µM, partner dose 0.02 µM), the figure is 45.9%.
As for `Cn1cnc2c(F)c(Nc3ccc(Br)cc3Cl)c(C(=O)NOCCO)cc21` [selumetinib] + COc1ccc(C2=N[C@@H](c3ccc(Cl)cc3)[C@@H](c3ccc(Cl)cc3)N2C(=O)N2CCNC(=O)C2)c(OC(C)C)c1 [Nutlin-3] (first compound 0.015 µM, partner dose 0.1 µM), the figure is 69.3%; as for `C[C@]1(O)C[C@@H](c2nc(-c3ccc4ccc(-c5ccccc5)nc4c3)c3c(N)nccn32)C1` + CN(c1ncccc1CNc1nc(Nc2ccc3c(c2)CC(=O)N3)ncc1C(F)(F)F)S(C)(=O)=O [PF562271] (first compound 0.4 µM, partner dose 0.08 µM), 57.5%.
As for `CCN(CC)CCNC(=O)c1c(C)[nH]c(/C=C2\C(=O)Nc3ccc(F)cc32)c1C` [sunitinib] + CC(=O)c1c(C)c2cnc(Nc3ccc(N4CCNCC4)cn3)nc2n(C2CCCC2)c1=O [palbociclib] (first compound 0.4 µM, partner dose 0.04 µM), the figure is 64.5%; as for `C[C@]1(O)C[C@@H](c2nc(-c3ccc4ccc(-c5ccccc5)nc4c3)c3c(N)nccn32)C1` + CNC(=O)c1cc(Oc2ccc(NC(=O)Nc3ccc(Cl)c(C(F)(F)F)c3)cc2)ccn1 [sorafenib] (first compound 0.4 µM, partner dose 0.4 µM), 55%.
Molecule `Cn1cnc2c(F)c(Nc3ccc(Br)cc3Cl)c(C(=O)NOCCO)cc21` [selumetinib] + COc1ccc(Cl)c(Nc2nc3ccccc3nc2NS(=O)(=O)c2cccc(NC(=O)C(C)(C)N)c2)c1 [XL147] (first compound 0.015 µM, partner dose 0.8 µM) displayed a cell count of 73.1%.
With `Cn1cnc2c(F)c(Nc3ccc(Br)cc3Cl)c(C(=O)NOCCO)cc21` [selumetinib] + CN(c1ncccc1CNc1nc(Nc2ccc3c(c2)CC(=O)N3)ncc1C(F)(F)F)S(C)(=O)=O [PF562271] (first compound 0.015 µM, partner dose 0.08 µM) the figure was 89.6%; with `C[C@]1(O)C[C@@H](c2nc(-c3ccc4ccc(-c5ccccc5)nc4c3)c3c(N)nccn32)C1` + CCCCCCCCc1ccc(CCC(N)(CO)CO)cc1 [fingolimod] (first compound 0.4 µM, partner dose 2 µM), 48.1%.
With `Cn1cnc2c(F)c(Nc3ccc(Br)cc3Cl)c(C(=O)NOCCO)cc21` [selumetinib] + CCCCCCCCc1ccc(CCC(N)(CO)CO)cc1 [fingolimod] (first compound 0.015 µM, partner dose 2 µM) the figure was 49.2%; with `CCN(CC)CCNC(=O)c1c(C)[nH]c(/C=C2\C(=O)Nc3ccc(F)cc32)c1C` [sunitinib] + CN1CCN(c2ccc3nc(-c4c(N)c5c(F)cccc5[nH]c4=O)[nH]c3c2)CC1 [Dovitinib] (first compound 0.4 µM, partner dose 0.1 µM), 87.1%; with `Cn1cnc2c(F)c(Nc3ccc(Br)cc3Cl)c(C(=O)NOCCO)cc21` [selumetinib] + Cn1c(Nc2ccc(C(F)(F)F)cc2)nc2cc(Oc3ccnc(-c4ncc(C(F)(F)F)[nH]4)c3)ccc21 [CHIR265] (first compound 0.015 µM, partner dose 0.08 µM), 50.7%.
With `COc1cc([C@@H]2c3cc4c(cc3[C@@H](O[C@@H]3O[C@@H]5CO[C@@H](C)O[C@H]5[C@H](O)[C@H]3O)[C@H]3COC(=O)[C@H]23)OCO4)cc(OC)c1O` [etoposide] + O=C(Nc1cc(C(F)(F)F)cc(C(F)(F)F)c1)c1cc(Cl)ccc1O [IMD0354] (first compound 0.02 µM, partner dose 0.016 µM) the figure was 82.8%.
The molecule `CCN(CC)CCNC(=O)c1c(C)[nH]c(/C=C2\C(=O)Nc3ccc(F)cc32)c1C` [sunitinib] + CC(=O)O[C@@]12CO[C@@H]1C[C@H](O)[C@@]1(C)C(=O)[C@H](O)C3=C(C)[C@@H](OC(=O)[C@H](O)[C@@H](NC(=O)OC(C)(C)C)c4ccccc4)C[C@@](O)([C@@H](OC(=O)c4ccccc4)[C@H]21)C3(C)C [Docetaxel] (first compound 0.4 µM, partner dose 0.0001 µM) gave a cell count of 25.1%.
With `C[C@]1(O)C[C@@H](c2nc(-c3ccc4ccc(-c5ccccc5)nc4c3)c3c(N)nccn32)C1` + CN1CCN(c2ccc3nc(-c4c(N)c5c(F)cccc5[nH]c4=O)[nH]c3c2)CC1 [Dovitinib] (first compound 0.4 µM, partner dose 0.1 µM) the figure was 61.8%; with `C[C@]1(O)C[C@@H](c2nc(-c3ccc4ccc(-c5ccccc5)nc4c3)c3c(N)nccn32)C1` + CC(C)C[C@H](NC(=O)[C@H](Cc1ccccc1)NC(=O)c1cnccn1)B(O)O [Bortezomib] (first compound 0.4 µM, partner dose 0.001 µM), 56.9%.
